These results are taken from publication PMC6602471.

The list shows a part of the results. At the low end of the ranking the order means little.

This test has as its target T1, ETS1 (UniProt P14921).
T1 sequence: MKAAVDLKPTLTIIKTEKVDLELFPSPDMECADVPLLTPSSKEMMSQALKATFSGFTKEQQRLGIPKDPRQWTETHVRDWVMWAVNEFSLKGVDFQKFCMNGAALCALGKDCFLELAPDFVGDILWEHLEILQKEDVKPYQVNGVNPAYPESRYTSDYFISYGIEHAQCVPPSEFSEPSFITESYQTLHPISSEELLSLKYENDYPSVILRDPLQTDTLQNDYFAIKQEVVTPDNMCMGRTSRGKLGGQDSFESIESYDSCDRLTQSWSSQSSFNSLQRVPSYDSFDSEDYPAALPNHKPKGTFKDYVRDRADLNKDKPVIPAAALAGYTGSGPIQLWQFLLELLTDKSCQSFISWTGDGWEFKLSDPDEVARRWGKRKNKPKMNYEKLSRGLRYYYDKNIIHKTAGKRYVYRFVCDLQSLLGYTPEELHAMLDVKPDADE
As to the kind of experiment: custom PBM. The following applies: custom protein-binding microarray; buffer, salt, pH and temperature not stated; high values mean tight binding; double strand, one strand shown.
In the case of “TAAAGGGAAGATGGTTGTGGTAGTTCCGGGTATTAAGTCTTGATTCGCTTGACGCTGCTG”, the binding signal (log fluorescence intensity) worked out at 8.51.

In the case of “GTGTATAGGATCCCATCCAACACACGTGCTAAAATGGTCTTGATTCGCTTGACGCTGCTG”, the binding signal (log fluorescence intensity) turned out to be 8.31. With “CACAATTTTTACAGTAAGGTAGCACGCGTAACTCCTGTCTTGATTCGCTTGACGCTGCTG” the figure was 8.29.

For the sequence “TCGGGCTACCAGCTCCACCCACTTCAGGCCTTGTAGGTCTTGATTCGCTTGACGCTGCTG”, the binding signal (log fluorescence intensity) was 8.12. Next, “TAAAGGGAAGACCGTTGTGGTAGTTCCGGGTATTAAGTCTTGATTCGCTTGACGCTGCTG”: 8.5; “CACAATTTTTACAGTAATGTAGCACGCGTAAGTCCTGTCTTGATTCGCTTGACGCTGCTG”: 8.25; “CACAATTTTCACAGTAATGTAGCACGCGTAACTCCTGTCTTGATTCGCTTGACGCTGCTG”: 8.1.

For “GGAAAAAGGCCCAGGGTAACACCGGCAGTGGGCTTAGTCTTGATTCGCTTGACGCTGCTG”, the binding signal (log fluorescence intensity) stood at 8.37.

Take “CTGGGACTTGACCCAACTCTGCAACGTGGGTCGTTTGTCTTGATTCGCTTGACGCTGCTG”: the binding signal (log fluorescence intensity) came out at 8.17.

As to “TCCAGCTACCAGCTCCACCCACTTCAGGCCTTGTAGGTCTTGATTCGCTTGACGCTGCTG”, the binding signal (log fluorescence intensity) turned out to be 8.23. Next, “TGTCGGGTAAGGGAATGTAGATCACGTGGATGAAAAGTCTTGATTCGCTTGACGCTGCTG”: 8.11. As to “AAGCATAGGACTTCTTCCCTGAAGCAATTGATAACCGTCTTGATTCGCTTGACGCTGCTG”, the binding signal (log fluorescence intensity) is 8.04. In the case of “TACAGGGAAGACGGTTGTGGTAGTTCCGGGTATTAAGTCTTGATTCGCTTGACGCTGCTG”, the binding signal (log fluorescence intensity) stood at 8.45. With “TGTCGGGTAAGGGAATGTAGATCACGTGAAGGAAAAGTCTTGATTCGCTTGACGCTGCTG” the figure was 8.26; with “TGTCGTGTAAGGGAATGTAGATCACGTGAATGAAAAGTCTTGATTCGCTTGACGCTGCTG”, 8.37. With “GGAAAAAGGCCCAGGGAAACACCGGAAGTGGGCTTAGTCTTGATTCGCTTGACGCTGCTG” the figure was 12.3. For the sequence “CGGAAGTGTCGTAAACGTCGGATATCGGGTTCTTCTGTCTTGATTCGCTTGACGCTGCTG”, the binding signal (log fluorescence intensity) was 8.65. Next, “GTGTATAGGATCCCATCCTACACACGTGTTAAAATGGTCTTGATTCGCTTGACGCTGCTG”: 8.21; “CTGGGACTTGACCCAACTCTGCCACGGGGGTCGTTTGTCTTGATTCGCTTGACGCTGCTG”: 8.24; “CTGGGACTTGACCCAACTCTGCCACGTGGGTCGATTGTCTTGATTCGCTTGACGCTGCTG”: 8.33. Turning to “GATAAATTTCTGCCCTTATTCGCACGTGCCATAACAGTCTTGATTCGCTTGACGCTGCTG”, the binding signal (log fluorescence intensity) was 8.15. As for “GGAAAAAGGCCCAAGGTAACACCGGAAGTGGGCTTAGTCTTGATTCGCTTGACGCTGCTG”, the binding signal (log fluorescence intensity) amounted to 12.1.

Turning to “TACTGGCTTATATATGCGAATGCACATGAATAGACCGTCTTGATTCGCTTGACGCTGCTG”, the binding signal (log fluorescence intensity) was found to be 8.27. Next, “GGAAAAAGGCCCAGGGTAACACCGGAAGTGGGCTGAGTCTTGATTCGCTTGACGCTGCTG”: 11.9; “CTGGGGCTTGACCCAACTCTGCCACGTGGGTCGTTTGTCTTGATTCGCTTGACGCTGCTG”: 8.22.

In the case of “TACTGACTTATATATGAGAATGCACATGAATAGACCGTCTTGATTCGCTTGACGCTGCTG”, the binding signal (log fluorescence intensity) is 8.19. With “GCTGCTGCGGTGCATATCCCACCGGATGTGACCCCGGTCTTGATTCGCTTGACGCTGCTG” the figure was 10.6; with “TAAAGGGAAGACGGTCGTGGTAGTTCCGGGTATTAAGTCTTGATTCGCTTGACGCTGCTG”, 8.53. On to “CACAATTTTTACAGTAATGTCGCACGCGTAACTCCTGTCTTGATTCGCTTGACGCTGCTG”, for which the binding signal (log fluorescence intensity) amounted to 8.28. With “GATTAATTTCTGCCCTTATTCTCACGTGCCATAACAGTCTTGATTCGCTTGACGCTGCTG” the figure was 8.12. With “GACAATTTTTACAGTAATGTAGCACGCGTAACTCCTGTCTTGATTCGCTTGACGCTGCTG” the figure was 8.05; with “TACTGACTTATATATGCGAATGCACATGAATAGCCCGTCTTGATTCGCTTGACGCTGCTG”, 8.25. Consider “TCCGGCTACCAGCTCCACCCACTTCAGGCCTTGTAAGTCTTGATTCGCTTGACGCTGCTG”, for which the binding signal (log fluorescence intensity) is 8.24. Consider “TGTCGGGTAAGGGAATGTAGATCACGTGAAAGAAAAGTCTTGATTCGCTTGACGCTGCTG”, for which the binding signal (log fluorescence intensity) came out at 8.17. Regarding “GGAAAAAGGCCCTGGGTAACACCGGAAGTGGGCTTAGTCTTGATTCGCTTGACGCTGCTG”, the binding signal (log fluorescence intensity) came to 12. Next, “GTGTATAGGATCCCATCCAACACACGTGTTGAAATGGTCTTGATTCGCTTGACGCTGCTG”: 8.28; “TACTGACTGATATATGCGAATGCACATGAATAGACCGTCTTGATTCGCTTGACGCTGCTG”: 8.27. Next, “GCTGCTGCGGTGCATACCCCGCCGGATGTGACCCCGGTCTTGATTCGCTTGACGCTGCTG”: 9.33; “GGAAAAAGGCCCAGGGTAAAACCGGAAGTGGGCTTAGTCTTGATTCGCTTGACGCTGCTG”: 12.1. With “CTGGGACTTGACCCAACTCTGCCACGTGGGTCGTTTGTCTTGATTCGCTTGACGCTGCTG” the figure was 8.2; with “GGAAAAAGGCCCAGGGTAACACCGGAACTGGGCTTAGTCTTGATTCGCTTGACGCTGCTG”, 9.07; with “TAAAGGGAAGAGGGTTGTGGTAGTTCCGGGTATTAAGTCTTGATTCGCTTGACGCTGCTG”, 8.6. As for “GCTGCTGCGGTGCATACCCTACCGGATGTGACCCCGGTCTTGATTCGCTTGACGCTGCTG”, the binding signal (log fluorescence intensity) turned out to be 10.2. With “TGTCGGGTAAGGGAATGTAGATCTCGTGAATGAAAAGTCTTGATTCGCTTGACGCTGCTG” the figure was 8.29.

With “GCTGCTGCGTTGCATACCCCACCGGATGTGACCCCGGTCTTGATTCGCTTGACGCTGCTG”, the binding signal (log fluorescence intensity) was determined as 10. Next, “TAAAGCGAAGACGGTTGTGGTAGTTCCGGGTATTAAGTCTTGATTCGCTTGACGCTGCTG”: 8.48; “TCCGGCTACCAGCTCCACCCACTTCAGGCCATGTAGGTCTTGATTCGCTTGACGCTGCTG”: 8.03; “GATTAATTTCTGCCCTTATTCGCACGTGCCATAACAGTCTTGATTCGCTTGACGCTGCTG”: 8.22. Next, “CGGAAGTGTCGTAAACGTCGGATATGCGGTTCTTCTGTCTTGATTCGCTTGACGCTGCTG”: 8.38; “CTGGGACTTGACCCAACTCTGCCGCGTGGGTCGTTTGTCTTGATTCGCTTGACGCTGCTG”: 8.26; “TACTGACTTATATATGCGAATGCACATGAATAGGCCGTCTTGATTCGCTTGACGCTGCTG”: 8.29. As for “TCCGTCTACCAGCTCCACCCACTTCAGGCCTTGTAGGTCTTGATTCGCTTGACGCTGCTG”, the binding signal (log fluorescence intensity) turned out to be 8.24. Next, “GATTGATTTCTGCCCTTATTCGCACGTGCCATAACAGTCTTGATTCGCTTGACGCTGCTG”: 8.24. For the sequence “CGGAAGTGTCGTAAACGTCGGACATCCGGTTCTTCTGTCTTGATTCGCTTGACGCTGCTG”, the binding signal (log fluorescence intensity) was determined as 12.6.

Consider “TACTGACTTATATATGCGAATGCACATGAATAGATCGTCTTGATTCGCTTGACGCTGCTG”, for which the binding signal (log fluorescence intensity) was determined as 8.17.

Consider “CACAATTTTTACAGTAATGCAGCACGCGTAACTCCTGTCTTGATTCGCTTGACGCTGCTG”, for which the binding signal (log fluorescence intensity) was 8.2. As to “CACAATTTTTCCAGTAATGTAGCACGCGTAACTCCTGTCTTGATTCGCTTGACGCTGCTG”, the binding signal (log fluorescence intensity) was 8.25. As for “TCCGGCTACCAGCTCCACCCACTTCAGGCCTTCTAGGTCTTGATTCGCTTGACGCTGCTG”, the binding signal (log fluorescence intensity) was found to be 8.09.

As to “CACCATTTTTACAGTAATGTAGCACGCGTAACTCCTGTCTTGATTCGCTTGACGCTGCTG”, the binding signal (log fluorescence intensity) turned out to be 8.16. For the sequence “CGGTAGTGTCGTAAACGTCGGATATCCGGTTCTTCTGTCTTGATTCGCTTGACGCTGCTG”, the binding signal (log fluorescence intensity) turned out to be 11.8. Next, “GTGTATAGGATCCCATCCAACACGCGTGTTAAAATGGTCTTGATTCGCTTGACGCTGCTG”: 8.17. Consider “GCTGCTGCGGCGCATACCCCACCGGATGTGACCCCGGTCTTGATTCGCTTGACGCTGCTG”, for which the binding signal (log fluorescence intensity) is 10.

Take “TGTCGGGTAAGGGAATGTAGATGACGTGAATGAAAAGTCTTGATTCGCTTGACGCTGCTG”: the binding signal (log fluorescence intensity) stood at 8.36. With “GGAAAAAGGCCCAGGGTAACACCGGAAGTGGCCTTAGTCTTGATTCGCTTGACGCTGCTG” the figure was 12.1; with “CTGGGACTTGACCCAGCTCTGCCACGTGGGTCGTTTGTCTTGATTCGCTTGACGCTGCTG”, 8.24.

For “CGGAAGTGACGTAAACGTCGGATATCCGGTTCTTCTGTCTTGATTCGCTTGACGCTGCTG”, the binding signal (log fluorescence intensity) was found to be 11.8. With “CGGAAGTGTCGTAAACGTCGGAGATCCGGTTCTTCTGTCTTGATTCGCTTGACGCTGCTG” the figure was 8.83; with “CGGAAGTGTCGTAAACGTCGGATATCCGGTTCTACTGTCTTGATTCGCTTGACGCTGCTG”, 12.

“GATGAATTTCTGCCCTTATTCGCACGTGCCATAACAGTCTTGATTCGCTTGACGCTGCTG”: the binding signal (log fluorescence intensity) stood at 8.29.

Turning to “GTGTATAGGATCCCATCCAACACACGTTTTAAAATGGTCTTGATTCGCTTGACGCTGCTG”, the binding signal (log fluorescence intensity) was determined as 7.91. With “CTGGGACTTGACCCAACTCGGCCACGTGGGTCGTTTGTCTTGATTCGCTTGACGCTGCTG”, the binding signal (log fluorescence intensity) was determined as 8.27. Next, “TGTCGGGTAAGGGATTGTAGATCACGTGAATGAAAAGTCTTGATTCGCTTGACGCTGCTG”: 8.22. Next, “TGTCGGGTAAGGGAGTGTAGATCACGTGAATGAAAAGTCTTGATTCGCTTGACGCTGCTG”: 8.3; “CACAATTTTTACAGTAATGTAGCACGAGTAACTCCTGTCTTGATTCGCTTGACGCTGCTG”: 8.27; “TAAAGGGAAGACGGTTGTGGTAGTTCCGGGTAGTAAGTCTTGATTCGCTTGACGCTGCTG”: 8.59. Next, “GCTGCTGCGGTGGATACCCCACCGGATGTGACCCCGGTCTTGATTCGCTTGACGCTGCTG”: 10.3. As for “GGAAAAAGGCCCAGGGTAACACCGGAAGTAGGCTTAGTCTTGATTCGCTTGACGCTGCTG”, the binding signal (log fluorescence intensity) came to 11.6.

“GCTGCTGCGGTGCATACCCCACCGGATTTGACCCCGGTCTTGATTCGCTTGACGCTGCTG”: the binding signal (log fluorescence intensity) was determined as 8.53. With “CAGCACAGGACTTCTTCCCTGAAGCAATTGATAACCGTCTTGATTCGCTTGACGCTGCTG” the figure was 8.34; with “GTGTATAGGATCCCACCCAACACACGTGTTAAAATGGTCTTGATTCGCTTGACGCTGCTG”, 8.16. For “CGGAAGTGTCGTAAACGTCGGATATCCGGTTATTCTGTCTTGATTCGCTTGACGCTGCTG”, the binding signal (log fluorescence intensity) was 12.1.
